The source of these data is the antibiotic and cytotoxicity screens of Wong et al. (2023).

Each structure is given as a SMILES string. The list shows a part of the results.

For this assay, the system named is S. aureus RN4220. Nature of the assay: growth inhibition call (relative growth <= 0.2). Conditions: 50 µM.
For the compound `C[C@H](CO)N1C[C@H](C)[C@H](CN(C)Cc2ccc(Oc3ccccc3)cc2)Oc2ccc(NC(=O)Nc3ccccc3)cc2C1=O`, the growth inhibition call was “inactive”. In the case of `C[C@H](CO)N1C[C@H](C)[C@H](CN(C)C(=O)NC2CCCCC2)Oc2ccc(NC(=O)CCN3CCOCC3)cc2CC1=O` it was “inactive”; in that of `C[C@@H]1CN([C@H](C)CO)C(=O)Cc2cc(NS(=O)(=O)c3ccccc3)ccc2O[C@H]1CN(C)Cc1ccc(Oc2ccccc2)cc1`, “inactive”; in that of `CO[C@@H]1CN(C)C(=O)c2cc(NC(=O)C3CCOCC3)ccc2OC[C@@H](C)N(C(=O)Nc2ccc(C(F)(F)F)cc2)C[C@H]1C`, “active”. In the case of `C[C@@H]1CCCCO[C@H](CN(C)Cc2ccc(C(=O)O)cc2)[C@H](C)CN([C@@H](C)CO)C(=O)c2cc(NS(=O)(=O)c3ccc(Cl)cc3)ccc2O1` it was “inactive”; in that of `C[C@@H]1CN([C@@H](C)CO)C(=O)c2cc(NC(=O)CCC(F)(F)F)ccc2O[C@@H](C)CCCCO[C@@H]1CN(C)CC1CCCCC1`, “inactive”; in that of `CNC[C@@H]1Oc2ccc(NC(=O)Cn3cnnn3)cc2CC(=O)N([C@H](C)CO)C[C@@H]1C`, “inactive”.

In the case of `CC(C)C#Cc1ccc2c(c1)O[C@H](CN(C)C(=O)c1cccc(F)c1)[C@@H](C)CN([C@H](C)CO)S2(=O)=O`, the growth inhibition call was “inactive”. For `C[C@@H]1CCCCO[C@H](CN(C)S(=O)(=O)c2ccc(Cl)cc2)[C@@H](C)CN([C@@H](C)CO)C(=O)c2cc(NC(=O)Nc3ccccc3)ccc2O1` the value was “inactive”. `C[C@@H]1CCCCO[C@H](CN(C)C(=O)Nc2ccc3c(c2)OCO3)[C@H](C)CN([C@@H](C)CO)C(=O)c2cc(NC(=O)Nc3cccc4ccccc34)ccc2O1`: the growth inhibition call is “inactive”.
